Measured values from the supplement of paper PMC10338343.
± gives the standard deviation. Whole data set: some 5,500 sequences, median “pre-steady-state target cleavage rate” near 0.1, cut for the highest 2% near 0.64. The entries are a selection whose mix differs from that of the whole data set.

System: MIWI (PIWIL1) piRISC loaded with piRNA #2 (30 nt)
Experiment: pre-steady-state target cleavage rate (min^-1); MIWI and MILI are mouse PIWI proteins and EfPiwi is from a freshwater sponge; tags in brackets are library labels; higher = faster piRNA-guided slicing of the target
Settings: guide: piRNA #2 5'p-UUAGGUAACCCAGUAGAUCCAGAGGAAUUC; auxiliary factor: 500 nM mouse GTSF1
Method in brief: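 A transcribed, DNA-blocked target RNA library […] was incubated at 33 °C for 0–8 or 0–960 min with 1 nM active affinity-purified piRISC carrying one synthetic guide, in HEPES–potassium acetate buffer with or without 500 nM GTSF1 partner protein. Uncleaved targets were then sequenced and normalised to depth and to weakly complementary targets. Data from three trials were pooled, with k3 capped at 0.0001 min^-1, and a burst-and-steady-state fit yielded the pre-steady-state cleavage rate.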

Sequence | pre-steady-state target cleavage rate
GAAUUCGUCUGGUUCUACUGGGUUACCUAA | 0.549 ± 0.062
CUUAAGCUCUGGAUCUACUGGGUUAGCAAA | 0.0893 ± 0.019
GAAUACCUCUGGAACUACUGGGUUACCUAA | 0.235 ± 0.042
CAAUUGCUCUGGAUCUACUGGGUUAGCUAA | 0.346 ± 0.07
CUAUUCCUCUGGAUCUACUGGGUCACCUAA | 0.216 ± 0.045
CUUAUCCUCUGGAUCUACUGGCUUACCUAA | 0.114 ± 0.019
CUUAAGGAGAGGAUCAACUGGGUUACCUAA | 0.00378 ± 0.0032
CUUAAGCACUGGAUCUACUGGGUAACCUAA | 0.102 ± 0.015
CAAUUCCUCUGGAUGUACUGGGUUACCUUA | 0.505 ± 0.05
CUUUUCCUCUGGUUCUACUGGGUUUCCUAA | 0.522 ± 0.19
GAUUUCCUGUGGAUCUACUGGGUUACCUAA | 0.292 ± 0.054
CUUAACCUCUGGAUCUACUGGGUAACCUAA | 0.101 ± 0.019
CUAAUCCUCUGGAUCUACUGGGUAACCUAA | 0.225 ± 0.041
CUUUUCCUCUGGAUCUACUGGGUUACCUCA | 0.266 ± 0.037
CUUAAGCUCUCGGAUCUACUGGGUUACCUAA | 0.231 ± 0.021
CUUUUCCUCUGGAUCUAGUGGGUUAGCUAA | 0.0499 ± 0.011
CUUAAGCUCUGGAUCUACUGCGUUAGCUAA | 0.0125 ± 0.0073
CUUAAGGAGACGAUCUACUGAGUUACCUAA | 0.0052 ± 0.002
CUUAAGCUCUGGAUCUACUGGGUUACCUAC [g2:g24:cont:t1C] | 0.0862 ± 0.012
CUUAAGCUCUGGAUCUUCAGGGUUACCUAA | 0.0391 ± 0.0084
CUUAAGGUCUGGAUCUACUGGGUUACCUAAA | 0.208 ± 0.033
CAAUUCCUCUGGAUCUACUGCCAUACCUAA | 0.00494 ± 0.0031
CUUAACCUCUGGAUCUAGUGGGUUACCUAA | 0.13 ± 0.012
CUAUUCCUCUGCAUCUACUGGGUUACGUAA | 0.31 ± 0.037

Sequence | pre-steady-state target cleavage rate
CUUAAGGAGUGGUUCUACUGCGUUACCUAA | 0.0144 ± 0.0057
CUAUUCCUCUCGAUCUACUGGCUUACCUAA | 0.181 ± 0.015
CUAUUCCUCAGCAUCUACUGGGUUACCUAA | 0.409 ± 0.036
CUUAAGGACUGGAUCAACUGGGUUACCUAA | 0.103 ± 0.053
CUUAAGGUCUGGAUCAACUGGGUAACCUAA | 0.0235 ± 0.018
CUUAAGGUCAGGAACUACUGGGUUACCUAA | 0.0207 ± 0.008
CUUUUCCUCUGGAUCUACUGGGUUACUAA | 0.215 ± 0.044
GAAUUCCUCUGGAACUACUCGGUUACCUAA | 0.146 ± 0.027
CUUAACCUCUGGAUCUACCGGGUUACCUAA | 0.0969 ± 0.0077
CUUAAGGUCUCGAUCUACUGCGUUACCUAA | 0.128 ± 0.021
CUUUUCGUCUCGAUCUACUGGGUUACCUAA | 0.446 ± 0.046
CUUAACCUCUGGUACUACUGGGUUACCUAA | 0.421 ± 0.041
CUUAUCGUCUGCAUCUACUGGGUUACCUAA | 0.368 ± 0.045
CUAUUUCUCUGGAUCUACUGGGUUACCUAA | 0.242 ± 0.041
CUUAAGGACUGGAUCAACUGGGUUACGUAA | 0.3 ± 0.077
CUUUUCGUCAGGAUCUACUGGGUUACCUAA | 0.299 ± 0.05
CAAUUCCUCUGGAUCUACUGGGAUACCUAA | 0.397 ± 0.047
CAAUACCUCUGGAUCUACUGGGUUACGUAA | 0.567 ± 0.059
CUUAAGCUCUGGAUGUACUGGGUAACCUAA | 0.0678 ± 0.013
CAAUUCCUCUGGAUAUACUGGGUUACCUAA | 0.724 ± 0.043
CUUAUCCUCUGGAUCCUACUGGGUUACCUAA | 0.171 ± 0.032
GAAUUGCUCUGGAUGUACUGGGUUACCUAA | 0.121 ± 0.03
CAAUUCCUCGGGAUCUACUGGGUUACCUAA | 0.453 ± 0.086
CUUAUCCGCUGGAUCUACUGGGUUACCUAA | 0.48 ± 0.048

Sequence | pre-steady-state target cleavage rate
GUAUUCCUCUGGAUCUACUGGGUUAGCUAA | 0.474 ± 0.08
CUUAAGCUCUGGAUCUAGUGCGUUACCUAA | 0.0254 ± 0.007
CAAUUCCUCUGGAUCUUCUGCGUUACCUAA | 0.331 ± 0.047
CUUUUGGUCUGGAUCUACUGGGUUACCUAA | 0.319 ± 0.03
GUAUUCCUCUGGAUCUACAGGGUUACCUAA | 0.064 ± 0.014
CAAUUCCUCUGAAUCUACUGGGUUACCUAA | 0.337 ± 0.057
CUUUUCCUGCUGGAUCUACUGGGUUACCUAA | 0.459 ± 0.041
CAAUUCGUCUGGAUCUACUGGGUUACCUAA | 0.463 ± 0.054
CAAUUCCUCUGGAUCUACUGGGUUACCUUAA | 0.427 ± 0.057
CUUAUCCUCUGGAUCUACUGGGUUCACCUAA | 0.335 ± 0.045
CUUAAGGAGUGGAUCUACUGGGUUAACCUAA | 0.0543 ± 0.019
CUUAAGGUCUGGAUCUUCUGGGUUACGUAA | 0.225 ± 0.034
CUAUUCCUCUGGACUCUACUGGGUUACCUAA | 0.222 ± 0.039
CUUAAGGAGACCUAGAUCUGGGGUACCUAA | < 0.0001
CUUAACCUCUGCAUCAACUGGGUUACCUAA | 0.281 ± 0.025
CUAUUCCUCUGGAUCUACUGGGUUACGCUAA | 0.576 ± 0.06
CAAUUCCUGUGGAUCUACUCGGUUACCUAA | 0.0786 ± 0.019
CUUAAGGACUGGAUCUACUGUGUUACCUAA | 0.0814 ± 0.048
CUUAAGGACUGGACCUACUGGGUUACCUAA | 0.155 ± 0.035
CUUAACGUCUGGAUCUACUGGGAUACCUAA | 0.206 ± 0.018
CUUAAGGACUGGAUCUACUGCGUUACGUAA | 0.26 ± 0.071
CUUAACCUCUGGAUCUACAGCGUUACCUAA | 0.113 ± 0.011
CAAUUCAUCUGGAUCUACUGGGUUACCUAA | 0.509 ± 0.048
CUUAAGGAGACCUAGAACAGGGUUACGUAA | < 0.0001
